The target in experiment [1] is human PSMA (prostate specific membrane antigen), full-length, expressed on cells (human, UniProt Q04609). The experiment is described as follows: cell-based or functional assay.
Experiment [2] concerns the target cynomolgus PSMA, full-length, expressed on CHO cells (cynomolgus, UniProt A0A2K5VNZ0 1-750). The experiment is described as follows: cell-based or functional assay.

Sequence of UniProt Q04609 (Q04609 whole entry): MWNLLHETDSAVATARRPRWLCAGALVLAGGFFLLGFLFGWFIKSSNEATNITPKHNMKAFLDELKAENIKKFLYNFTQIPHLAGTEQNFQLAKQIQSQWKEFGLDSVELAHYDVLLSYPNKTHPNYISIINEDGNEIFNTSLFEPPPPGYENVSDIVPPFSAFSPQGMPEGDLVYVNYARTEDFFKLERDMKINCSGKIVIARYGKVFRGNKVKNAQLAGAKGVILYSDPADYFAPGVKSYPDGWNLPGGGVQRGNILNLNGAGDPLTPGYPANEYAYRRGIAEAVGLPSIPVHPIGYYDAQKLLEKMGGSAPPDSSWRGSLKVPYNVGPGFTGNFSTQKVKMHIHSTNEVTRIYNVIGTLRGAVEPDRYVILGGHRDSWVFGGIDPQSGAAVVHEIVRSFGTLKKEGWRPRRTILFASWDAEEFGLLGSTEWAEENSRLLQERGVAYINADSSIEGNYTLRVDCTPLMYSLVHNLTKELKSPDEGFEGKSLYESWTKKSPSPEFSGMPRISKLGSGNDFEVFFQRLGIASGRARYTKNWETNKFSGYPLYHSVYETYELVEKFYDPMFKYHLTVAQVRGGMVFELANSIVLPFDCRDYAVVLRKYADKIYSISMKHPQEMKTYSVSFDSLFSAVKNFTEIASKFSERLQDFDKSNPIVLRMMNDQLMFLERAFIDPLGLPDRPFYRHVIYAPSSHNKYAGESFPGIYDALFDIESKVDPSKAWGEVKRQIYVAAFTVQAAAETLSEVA

B1: 1.17-6GS-2.1 (bispecific antibody, not shown: small tags and cut ends)
chain: EVQLLESGGGLVQPGGSLRLSCAASGFSFSSYALSWVRQAPGKGLEWVSSIGENNDTTDYAD[sequence of about 20 residues omitted]MNSLRVEDTAVYYCVKDGVHWGQGTLVTVSSGGGGSGGGGSGGGGSGGGGSGGGGSGGGGSEVQLVESGGGVVQPGRSLRLSCAASGFSFSGYGMHWVRQAPGKGLEWVAYISYDGSNKYYADSVKGRFTISRDNSKNTLYLQMNSLRAEDTAVYYCAKDPAWGLRLGESSSYDFDIWGQGTMVTVSS
On to B1, for which, in experiment [1], the “His-ZAP cell killing, human PSMA Average EC50” value amounted to 0.013 nM. Moreover, in experiment [2], the “His-ZAP cell killing, cyno PSMA Average EC50” value was found to be 0.015 nM.

B2: 1.17-6GS-2.17 (bispecific antibody, not shown: small tags and cut ends)
chain: EVQLLESGGGLVQPGGSLRLSCAASGFSFSSYALSWVRQAPGKGLEWVSSIGENNDTTDYAD[sequence of about 20 residues omitted]MNSLRVEDTAVYYCVKDGVHWGQGTLVTVSSGGGGSGGGGSGGGGSGGGGSGGGGSGGGGSEVQLVESGGGVVQPGRSLRLSCAASGFSFSGYGMHWVRQAPGKGLEWVAYISYDASNKYYADNVKGRFTISRDNSKNTLYLQMNSLRAEDTAVYYCAKDPAWGLRLGESSSYDFDIWGQGTMVTVSS
For the molecule B2, in experiment [1], the “His-ZAP cell killing, human PSMA Average EC50” value is 0.014 nM. For the same molecule, in experiment [2], the “His-ZAP cell killing, cyno PSMA Average EC50” value turned out to be 0.01 nM.

B3: 1.17-6GS-2.15 (bispecific antibody, not shown: small tags and cut ends)
chain: EVQLLESGGGLVQPGGSLRLSCAASGFSFSSYALSWVRQAPGKGLEWVSSIGENNDTTDYAD[sequence of about 20 residues omitted]MNSLRVEDTAVYYCVKDGVHWGQGTLVTVSSGGGGSGGGGSGGGGSGGGGSGGGGSGGGGSEVQLVESGGGVVQPGRSLRLSCAASGFSFSGYGLHWVRQAPGKGLEWVAYISYDKSNKYYADKVKGRFTISRDNSKNTLYLQMNSLRAEDTAVYYCAKDPAWGLRLGESSSYDFDIWGQGTMVTVSS
With B3, the “His-ZAP cell killing, cyno PSMA Average EC50” value in experiment [2] was 0.012 nM.

B4: 1.17-6GS-2.22 (bispecific antibody, not shown: small tags and cut ends)
chain: EVQLLESGGGLVQPGGSLRLSCAASGFSFSSYALSWVRQAPGKGLEWVSSIGENNDTTDYAD[sequence of about 20 residues omitted]MNSLRVEDTAVYYCVKDGVHWGQGTLVTVSSGGGGSGGGGSGGGGSGGGGSGGGGSGGGGSEVQLVESGGGVVQPGRSLRLSCAASGFSFSGYGTHWVRQAPGKGLEWVAYISYDGSNKYYAAPVKGRFTISRDNSKNTLYLQMNSLRAEDTAVYYCAKDAAWGLRLGESSSYDFDIWGQGTMVTVSS
B4: in experiment [1], the “His-ZAP cell killing, human PSMA Average EC50” value is 0.018 nM. The “His-ZAP cell killing, cyno PSMA Average EC50” value in experiment [2] was found to be 0.012 nM.

Source of the values: patent US20190023807A1 (CRESCENDO BIOLOGICS, published 2019).
